Data reported in PubChem BioAssay (NCATS).
The other results are listed elsewhere or left out. These are further read-outs of the screen, such as a control signal, another cell line or another target. No call is given for them. Most of these compounds were active or inconclusive in the main read-out, so they are no random draw. The note in brackets gives the kind of curve behind each potency; many fits are weak.

Assay: qHTS Assay for Lipid Storage Modulators (AID 1519)
Conditions: Drosophila S3 cells, BODIPY lipid droplet/cell ratio, laser cytometry, cells loaded with oleic acid
How it was run: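 Cells seeded at 5,000 per well were treated with compounds over a concentration series and loaded with oleic acid (400 uM, as added). Lipid droplet fluorescence (488 nm excitation, 500-530 nm channel) was read by laser-scanning cytometry and normalized to 20 uM Triacsin C.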

[1] = measured here: cell count channel max response
[2] = measured here: lipid (BODIPY) channel AC50
[3] = measured here: lipid channel max response
[4] = measured here: cell number channel AC50
Tags tell the direction and shape of the fitted curve.

Row | SMILES | max response [1] [%] | AC50 [2] | max response [3] [%] | AC50 [4]
1 | CNc1ncncc1-c1ccccc1C | 28 | 5.01 µM [rising, partial curve, poor fit] | 35.1 | 
2 | CCNc1ncc2nc(-c3ccc(F)cc3)c(=O)n(CCc3ccccc3)c2n1 | 33 |  | 25.2 | 0.355 µM [rising, full curve]
3 | CC1CC2C3CCC4=CC(=O)C=C[C@@]4(C)[C@]3(F)C(O)C[C@]2(C)[C@]1(O)C(=O)COP(=O)(O)O (stereo partly drawn) | 24.1 | 20 µM [rising, partial curve] | 38.1 | 
4 | N#Cc1ccc(CN2CCCC3(CCN(S(=O)(=O)c4ccccc4)CC3)C2)cc1 | -8.23 |  | -17.9 | 1.12 µM [rising, partial curve]
5 | COc1cccc(Cn2c(=O)c(-c3ccccc3)nc3cncnc32)c1 | 20.9 | 0.0316 µM [rising, full curve] | 31.6 | 
6 | CC1(C)C(=O)C=C[C@@]2(C)C1C=C[C@@]1(C)C2CC[C@@]2(C)C(c3ccoc3)OC(=O)C3OC312 (stereo partly drawn) | -25 | 35.5 µM [falling, single point] | -45.6 | 
7 | COCCn1c(=O)c(-c2ccc(F)cc2)nc2cnc(Nc3cccc(OC)c3)nc21 | 30.5 |  | 0.166 | 39.8 µM [rising, single point]
8 | FC(F)(F)c1ccccc1-c1cncnc1NCCc1cnc[nH]1 | 8.95 | 0.891 µM [rising, full curve, poor fit] | 16.9 | 
9 | Cc1noc(C)c1-c1ccc2ncnc(N3CCOCC3)c2c1 | 23.1 | 2.82 µM [rising, single point] | 19.8 | 
10 | COc1ccc(NC(=O)N2CC[C@@]3(CCCN(C(=O)c4cccc(F)c4)C3)C2)cc1 | 12.8 | 2 µM [rising, full curve, poor fit] | 20 | 
11 | COc1ccc2[nH]cc(CCNc3ncncc3-c3ccc4c(c3)OCO4)c2c1 | -9.4 |  | -23.6 | 0.141 µM [rising, full curve]
12 | Nc1ncnc2c1ncn2C1CCCC1 | 55.7 |  | 53.6 | 0.00251 µM [rising, full curve, poor fit]
13 | CC1(C)OC(=O)NC1=O | 24.6 | 39.8 µM [rising, single point] | 44.1 | 
14 | COc1ncc2nc(C)c(=O)n(C[C@H]3CCCO3)c2n1 | 31.5 | 15.8 µM [rising, partial curve, poor fit] | 42.8 | 
15 | Cc1cccc(CNc2cc(-c3cccc(C#N)c3)ncn2)c1 | -22.1 | 39.8 µM [falling, single point] | -37.5 | 
16 | O=C(O)C=Cc1ccc(Cn2ccnc2)cc1 | 25.7 | 1 µM [rising, full curve, poor fit] | 32.5 | 
17 | Cc1c(C)c2c(c(C)c1O)CCC(C)(CCCC(C)CCCC(C)CCCC(C)C)O2 (stereo not drawn) | 14.8 | 35.5 µM [rising, single point] | 33.9 | 
18 | O=C(O)C(S)[C@@H](S)C(=O)O (stereo partly drawn) | 18.5 | 25.1 µM [rising, single point] | 32.8 | 
19 | Cn1c(=O)c(CCc2ccccc2)nc2cnc(N3CCOCC3)nc21 | 23.3 | 0.794 µM [rising, full curve] | 30 | 
20 | N#Cc1cccc(-c2ccc3ncnc(NCc4cccs4)c3c2)c1 | -24.3 | 3.16 µM [falling, single point] | -36.7 | 
21 | CN(C)c1ncc2nc(-c3ccccc3)c(=O)n(C)c2n1 | 11.5 | 3.16 µM [rising, single point] | 16.5 | 
22 | O=c1c(CCc2ccccc2)nc2cnc(N3CCNCC3)nc2n1-c1ccccc1 | 26 | 20 µM [rising, single point] | 32.3 | 
23 | COCCNc1nc(-c2ccccc2C(F)(F)F)nc2ccccc12 | 12.6 | 0.00708 µM [rising, full curve, poor fit] | 12.5 | 
24 | O=c1c(-c2ccc(Cl)cc2)nc2cnc(Nc3ccccc3)nc2n1C1CC1 | 54.2 |  | -51.9 | 10 µM [rising, partial curve]
25 | CC1OC(OC2C(CO)OC(OC3C(CO)OC(O)C(O)C3O)C(O)C2O)C(O)C(O)C1NC1C=C(CO)C(O)C(O)C1O (stereo not drawn) | 7.56 | 35.5 µM [rising, single point] | 31.4 | 
26 | COc1ccc2c(c1)OCC(Cc1ccc(OC)c(OC)c1)C2=O (stereo not drawn) | -18.1 | 25.1 µM [falling, partial curve] | -71.7 | 
